Inconclusive results, whose numbers are uncertain, are shown with a selection of clear calls. Potencies of inconclusive entries are left out as doubtful fits. Calls of active or inactive are those of the source. Calls come from the whole dose curve; as a rule, active = well fitted cell-killing curve with a large enough effect; inconclusive = small, poorly fitted or top-dose-only effect; inactive = no such curve, though single readings can be large or run the other way.
Assay: qHTS of pediatric cancer cell lines to identify multiple opportunities for drug repurposing: Primary screen for OHS-50 cells (AID 1347103); note: nearly all actives have a fitted effect of over 40% in size
Conditions: OHS-50 osteosarcoma viability, CellTiter-Glo luminescence, 48 h; series mostly up to 57.3 µM
In short: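 Cells (500-1,000/well) rested 5 h, then received compounds for 48 h; metabolically active cells were measured by CellTiter-Glo luminescence. Final concentrations spanned up to 46 µM (MIPE, 11-point) or 0.59 nM-46 µM (NPC, 8-point) in primary screens, 11-point in follow-ups.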
Potency is the fitted concentration of half-maximal effect; tags give direction and shape of the fitted curve.

For `Cc1cc2c(s1)Nc1ccccc1N=C2N1CCN(C)CC1`, which Potency is on record?
The Potency was inconclusive [cytotoxic, partial curve, poor fit].

With `CCCOC(=O)c1ccc(O)cc1` as the molecule, how does the Potency read?
Its Potency is inconclusive [cytotoxic, single point].

Which Potency does the source give for `C/C(=N\O)c1ccc(OCC(=O)N2CCCCC2)cc1` here?
The Potency was “inactive”.

For `OC(CCN1CCCCC1)(c1ccccc1)c1ccccc1`, which Potency is on record?
Its Potency is inconclusive [cytotoxic, partial curve, poor fit].

For `O=c1c(-c2ccc(O)cc2)coc2cc(O[C@@H]3O[C@H](CO)[C@H](O)[C@H](O)[C@H]3O)ccc12`, which Potency is on record?
Its Potency is “inactive”.

Which Potency does the source give for `CCCCCCCCCCCCCCCC(=O)OC(C)C` here?
The Potency was “inactive”.

Which Potency does the source give for `CC(C)OC(=O)c1cc(C(=O)OC(C)C)cc([N+](=O)[O-])c1` here?
The Potency was “inactive”.

For `CN1CCC[C@@H]1Cc1c[nH]c2ccc(CCS(=O)(=O)c3ccccc3)cc12`, which Potency is on record?
The Potency was “inactive”.

Which Potency does the source give for `OC[C@]1(O)OC[C@@H](O)[C@H](O)[C@@H]1O` here?
The Potency was “inactive”.

Which Potency does the source give for `COc1ccnc(CS(=O)c2nc3ccc(OC(F)F)cc3[nH]2)c1OC` (centres undefined) here?
The Potency was inconclusive [cytotoxic, partial curve].

Which Potency does the source give for `Nc1ccc(N=Nc2ccccc2)c(N)n1` here?
Its Potency is inconclusive [cytotoxic, partial curve].

For `COc1cc2nc(N3CCN(C(=O)C4CCCO4)CC3)nc(N)c2cc1OC` (centres undefined), which Potency is on record?
Its Potency is “inactive”.

Which Potency does the source give for `OC1(c2ccc(Cl)cc2)CCNCC1` here?
Its Potency is “inactive”.

With `Cn1ccc2cc3c(cc21)CCN3C(=O)Nc1cccnc1` as the molecule, how does the Potency read?
Its Potency is inconclusive [cytotoxic, full curve].

Reference: PubChem BioAssay (NCATS)
